# Out of some 130,000 compounds screened, about 1,900 (1.5%) were called active. The shares of active, inactive and inconclusive entries below differ from those in the screen. Calls follow the shape of the dose curve; as a rule, active = well fitted cell-killing curve with a large enough effect; inconclusive = small, poorly fitted or top-dose-only effect; inactive = no such curve, though single readings can be large or run the other way. Where the call is inconclusive, the potency comes from a doubtful curve fit.
# Test: qHTS Screen for Compounds that Selectively Target Cancer Cells with p53 Mutations: Cytotoxicity of p53ts Cells at the Nonpermissive Temperature; also: nearly all actives have a fitted effect of over 55% in size
# Conditions: H1299-p53A138V viability at 39C, ATP luminescence, 24 h; activity change, negative = cell killing: at 46.1 µM (top of the series)
# % is scaled to controls: 0 for no effect and ±100 for the full control effect; potency is read from the fitted curve at half-maximal effect; tags tell the direction and shape of the fitted curve.
Structure (SMILES),Potency,"activity change, negative = cell killing"
O=C(Oc1ccc(Br)cc1)C1CC(=O)N(c2ccc(F)cc2)C1 (stereo not given),inactive,
COC(=O)c1ccc(C#CC(NP(=O)(c2ccccc2)c2ccccc2)c2ccccc2)cc1 (stereo not given),inactive,
O=C(Nc1ccc2oc(-c3ccc4ccccc4c3)nc2c1)c1cccc(Cl)c1Cl,"inconclusive: 15.8 µM [cytotoxic, single point]",
O=S(=O)(c1ccc2c(c1)C(=NO)c1cc(S(=O)(=O)N3CCCCC3)ccc1-2)N1CCCCC1,"inconclusive: 0.631 µM [cytotoxic, full curve, poor fit]",
Cc1ccccc1NC(=O)c1cc2ccccc2o1,"inconclusive: 12.6 µM [cytotoxic, partial curve]",
Cc1cccc(-c2nnc(-c3ccc(N)cc3)o2)c1,"inconclusive: 12.6 µM [cytotoxic, partial curve]",
CC(C)c1ccc(NC(=O)c2cccnc2)cc1,inactive,
N=C1C(c2nc3ccccc3[nH]2)=C(O)CN1c1ccccc1,inactive,
O=C(Nc1ccc(F)cc1)c1ncn(-c2ccccc2)n1,active: 15.8 µM,
Cc1ccc2oc(=O)c(-c3nc(-c4cccs4)no3)cc2c1,"inconclusive: 3.55 µM [cytotoxic, single point]",
CCCOc1ccc(C(=O)Nc2cccc(NC(=O)c3ccc(Cl)cc3Cl)c2)cc1,active: 7.94 µM,
Cc1ccc(C)cc1,inactive,
O=C(Cn1cnc([N+](=O)[O-])c1)Nc1cc(Oc2ccc(Cl)cc2Cl)cc([N+](=O)[O-])c1,"inconclusive: 20 µM [cytotoxic, single point]",
O=C(COc1ccc(F)cc1)NCc1ccc2c(c1)CCN2C(=O)c1ccc(F)cc1,"inconclusive: 10 µM [cytotoxic, partial curve]",
Cc1ccc(C)c(N2CCN(c3nc4ccccc4n4nnnc34)CC2)c1,,inconclusive: -31.2% [cytotoxic]
Cc1ccc(S(=O)(=O)c2c(C)nn(C(C)(C)C)c2OC(=O)c2ccc(Br)o2)cc1,inactive,
Cc1ccc(-n2ncc3c(N4CCN(Cc5ccccc5)CC4)ncnc32)cc1C,active: 31.6 µM,
Cc1oc(-c2ccccc2F)nc1Cn1c(SCc2cccc(Cl)c2)nc2ccncc21,"inconclusive: 10 µM [cytotoxic, partial curve]",
O=C(NCCc1csc(-c2ccc(C(F)(F)F)cc2)n1)c1ccccc1Cl,"inconclusive: 15.8 µM [cytotoxic, partial curve]",
CCOC(=O)c1c(NC(=O)COc2ccc(OC)cc2)sc(C(=O)N(CC)CC)c1C,inactive,
N#Cc1c(/N=C/c2cc3ccccc3s2)sc2c1CCC2,inactive,
Cc1cccc(CCNC(=O)CCc2c(C)nc3c(-c4ccc(F)cc4)c(C)nn3c2C)c1,"inconclusive: 15.8 µM [cytotoxic, single point]",
CCC(=O)n1nc(-c2ccco2)nc1SCc1ccccc1,"inconclusive: 12.6 µM [cytotoxic, single point]",
COc1cc(NS(=O)(=O)c2ccc3c(c2)OCC(C(=O)N2CCCC2)O3)cc(OC)c1 (stereo not given),"inconclusive: 6.31 µM [cytotoxic, partial curve]",

Structure (SMILES),Potency,"activity change, negative = cell killing"
COc1ccccc1CSc1nc2n(n1)C(c1ccccc1)C(C(=O)Nc1ccc(C)cc1)=C(C)N2 (stereo not given),"inconclusive: 20 µM [cytotoxic, single point]",
CN1CCN(CC(=O)N2CCn3c4c(c5cc(C6CCCCC6)ccc53)CCCC42)CC1 (stereo not given),"inconclusive: 31.6 µM [cytotoxic, single point]",
CCCCNC(=O)c1ccc(-c2nc(CN3CCc4ccccc43)c(C)o2)cc1,"inconclusive: 0.0158 µM [cytotoxic, full curve, poor fit]",
O=C(CSc1nc2c(c(C(F)(F)F)n1)CCc1ccccc1-2)NCc1ccco1,inactive,
Fc1ccc(NCc2nc3ccccc3n2CCOc2ccccc2Cl)cc1,"inconclusive: 25.1 µM [cytotoxic, single point]",
CCN1CCN(CC(=O)Nc2cc(C)c(C)cc2[N+](=O)[O-])CC1,"inconclusive: 1 µM [cytotoxic, full curve, poor fit]",
O=C(CSc1ccc2nnc(-c3ccncc3)n2n1)NCC1CCCO1 (stereo not given),"inconclusive: 15.8 µM [cytotoxic, partial curve]",
COc1ccc(/C=N/n2cnnc2SCc2ccccc2)cc1,"inconclusive: 10 µM [cytotoxic, partial curve]",
CCOC(=O)CCN1C(=O)[C@H]2[C@H]3[C@H](O)[C@H](O)C/C(=N/OCc4ccccc4)[C@H]3CC[C@@H]2C1=O,,inactive: 5.49% [at 9.22 µM]
CN1CCN(Cc2c(O)ccc3occ(C(=O)c4ccccc4)c23)CC1,inactive,
O=C1NCCCC2c3cc(O)c4ccccc4c3OC12N1CCCCC1 (stereo not given),active: 7.94 µM,
COc1ccc(Nc2oc(COc3cccc(C)c3)nc2C#N)cc1,"inconclusive: 31.6 µM [cytotoxic, single point]",
COc1cc2nc(NCCc3ccc(Cl)cc3)n3nc(-c4ccccc4)nc3c2cc1OC,"inconclusive: 20 µM [cytotoxic, single point]",
O=C(Nc1cccc(Cl)c1)c1cc(-c2ccc3c(c2)OCCO3)on1,active: 3.98 µM,
CCCn1c(N2CCN(CC(=O)c3c(C)n(C)c4ccccc34)CC2)nc2c1c(=O)[nH]c(=O)n2C,inactive,
O=C(COc1ccccc1)NCCc1csc(-c2cccc(F)c2)n1,"inconclusive: 0.0398 µM [cytotoxic, full curve, poor fit]",
CC(NC(=O)c1ccc(NC(=O)c2nsc3ccccc23)cc1)c1ccccc1 (stereo not given),"inconclusive: 6.31 µM [cytotoxic, full curve]",
Cn1nnnc1SCCNCc1ccc(OCc2ccccc2Cl)cc1,"inconclusive: 15.8 µM [cytotoxic, single point]",
O=C(COc1ccccc1)NCc1ccc2c(c1)CCN2C(=O)c1ccccc1,,inconclusive: -30% [cytotoxic]
CN(C)c1ccc(-c2nccc(Nc3ccc(F)cc3)n2)cc1,"inconclusive: 15.8 µM [cytotoxic, single point]",
O=C(CSc1ccccc1)NCc1ccc2c(c1)CCN2C(=O)c1ccc(Cl)cc1,"inconclusive: 15.8 µM [cytotoxic, single point]",
COc1ccc(CCN2C(=O)c3[nH]nc(-c4ccccc4O)c3C2c2cccc(OC)c2)cc1 (stereo not given),"inconclusive: 3.98 µM [cytotoxic, partial curve]",
Cc1ccc(NC(=O)CSc2c3c(nc4ccccc24)CCCC3)cc1F,active: 15.8 µM,
Cc1cc(C(=O)CSc2n[nH]c(N)n2)c(C)n1-c1cc(F)ccc1F,"inconclusive: 12.6 µM [cytotoxic, single point]",

Structure (SMILES),Potency,"activity change, negative = cell killing"
FC(F)(F)C(Cl)Br (stereo not given),inactive,
O=C(Cn1c2c(c(-c3ccccc3)cc1=O)CCCC2)N1CCCCCC1,"inconclusive: 31.6 µM [cytotoxic, single point]",
CCOc1ccc(OCC)c(NC(=O)CSc2nc3cccnc3n2C)c1,inactive,
CCc1ccccc1NC(=O)Cn1ccn(-c2cc(C)cc(C)c2)c(=O)c1=O,inactive,
Cc1nn(C(C)C(=O)NC2CCCCC2)c(=O)c2c1sc1ccccc12 (stereo not given),active: 10 µM,
COc1ccc(-c2nnc(SC(C)C(=O)Nc3cccc(Cl)c3)o2)cc1 (stereo not given),"inconclusive: 15.8 µM [cytotoxic, single point]",
CCN(c1ccccc1)C(CNS(=O)(=O)c1ccccc1)c1ccccc1 (stereo not given),"inconclusive: 20 µM [cytotoxic, partial curve, poor fit]",
CCOC(=O)C1(C)C=C(Nc2ccc(Br)cc2)C(=O)N1c1ccccc1 (stereo not given),"inconclusive: 25.1 µM [cytotoxic, single point]",
CCn1c(=NC(=O)c2ccc3c(c2)OCCO3)sc2c(C)ccc(OC)c21,active: 10 µM,
C=C(C)COc1ccc(-c2[nH]ncc2-c2ccccc2OC)c(O)c1,"inconclusive: 25.1 µM [cytotoxic, single point]",
CCC(Sc1nc2ccccc2c2nc(CCn3cncc3C)nn12)C(=O)Nc1cccc(OC)c1 (stereo not given),"inconclusive: 20 µM [cytotoxic, single point]",
O=C(CC(Nc1ccc(F)cc1)C(=O)OCC(=O)c1cccs1)c1ccccc1 (stereo not given),inactive,
COc1ccc(/C=C(\C#N)C(N)=O)cc1OC,,inactive: 7.32% [at 9.22 µM]
CN(C)c1ncc2nc(-c3ccccc3)c(=O)n(C)c2n1,"inconclusive: 12.6 µM [cytotoxic, partial curve]",
Cc1cc(C)c2nc(N3CCCC(C(=O)NCc4cccc(Br)c4)C3)sc2c1 (stereo not given),"inconclusive: 31.6 µM [cytotoxic, single point]",
Fc1ccc(Nc2nc3ccccc3c3nncn23)c(Cl)c1,"inconclusive: 25.1 µM [cytotoxic, partial curve]",
COc1cc(C(=O)Nc2ccc3c(c2)OCCO3)ccc1OC(C)C,"inconclusive: 12.6 µM [cytotoxic, partial curve]",
Cc1nn(CC(=O)NCc2cccc(Br)c2)c(=O)c2c1sc1ccccc12,"inconclusive: 15.8 µM [cytotoxic, single point]",
COCCCNC(=O)c1c(N)n(-c2cccc(S(N)(=O)=O)c2)c2nc3ccccc3nc12,inactive,
O=C(Nc1cccc(O)c1)c1ccc(Br)cc1,"inconclusive: 12.6 µM [cytotoxic, single point]",
COCCCNC(=O)c1cc(-c2ccc(OC)cc2)nc2n[nH]c(-c3ccc(Cl)cc3)c12,inactive,
Cc1c(C(=O)Nc2ccc(F)cc2F)oc2ccc3c(c12)C(=O)CC(C)(C)O3,"inconclusive: 20 µM [cytotoxic, partial curve, poor fit]",

# Reference: PubChem BioAssay AID902 (National Center for Advancing Translational Sciences (NCATS), 2007)
